Experimental data as given in PubChem BioAssay AID1745853 (National Center for Advancing Translational Sciences (NCATS), 2022).
Several values for one entry are separate records, joined by “and”; a condition that tells them apart may be missing. Equal values may be shown once. The list shows a part of the results. Shown are side measurements of this screen, not its main read-out; they come without a call.

Legend:
Assay in all cases: Primary Screen for Target Class Profiling of Small Molecule Inhibitors of Methyltransferases
[1] = molecular target: Glycine N-methyltransferase (Homo sapiens) (UniProt Q14749); conditions: purified enzyme, MTase-Glo SAH luminescence; measured here: GNMT inhibition; at 40 µM; stronger effect = lower value
Procedure, shortened: (§1)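 Each enzyme was reacted with SAM and its substrate, with compounds tested once at 40 uM; SAH formed was read by MTase-Glo luminescence.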

[2] = molecular target: Guanidinoacetate N-methyltransferase (Homo sapiens) (UniProt Q14353); conditions: purified enzyme, MTase-Glo SAH luminescence; measured here: GAMT inhibition; at 40 µM; stronger effect = lower value
Procedure, shortened: as §1

[3] = molecular target: Histamine N-methyltransferase (Homo sapiens) (UniProt P50135); conditions: purified enzyme, MTase-Glo SAH luminescence; measured here: HNMT inhibition; at 40 µM; stronger effect = lower value
Procedure, shortened: as §1

[4] = molecular target: Nicotinamide N-methyltransferase (Homo sapiens) (UniProt P40261); conditions: purified enzyme, MTase-Glo SAH luminescence; measured here: NNMT inhibition; at 40 µM; stronger effect = lower value
Procedure, shortened: as §1

[5] = molecular target: Phenylethanolamine N-methyltransferase (Homo sapiens) (UniProt P11086); conditions: purified enzyme, MTase-Glo SAH luminescence; measured here: PNMT inhibition; at 40 µM; stronger effect = lower value
Procedure, shortened: as §1
On the % scale 0 is the no-effect control and ±100 the full control effect.

SMILES	activity change, negative = inhibition [1]	activity change, negative = inhibition [2]	activity change, negative = inhibition [3]	activity change, negative = inhibition [4]	activity change, negative = inhibition [5]
COc1cc(C/C(=C/NC(C)=O)N(CC(=O)Cc2ccccc2)C(C)=O)cc2c1OCO2	-0.301%	-6.13%	-1.17%	-24.7%	-0.142%
COc1cccc(OCCCN)c1-c1cc(Nc2cnc(C#N)cn2)n[nH]1	-0.106%	10.7%	0.481%	-7.17%	-12%
COC(=O)c1cc2n(n1)CC(C)(C(=O)NC1CCCCCC1)N(Cc1ccccc1Cl)C2=O (configuration not stated)	1.08%	0%	2.62%	-1.98%	0.587%
Cn1c(=O)c2ccc(C(=O)NC3CCCCC3)cc2n2c(=O)n(Cc3ccc(F)cc3Cl)nc12	7.08%	0%	13.5%	5.82%	6.61%
Cc1noc(C)c1S(=O)(=O)N1CC(C(=O)NC2CCCCC2)C2(CCOCC2)C1 (configuration not stated)	-1.3%	2.91%	1.97%	1.7%	2.48%
CC(C)CCN1C(=O)c2ccc(-c3ccco3)n2CC1(C)C(=O)NC1CCCCC1C (configuration not stated)	-0.569%	2.95%	7.01%	-3.79%	-1.03%
CC(C)CCNc1ncccc1C(=O)N1CCN(Cc2ccccc2)CC1	-3.5%	-13.1%	6.16%	-30.6%	-7.02%
COc1ccccc1N1CCN(CCN2C(=O)CC3(CCCC3)CC2=O)CC1	2.13% and 2.68%	6.46% and 8.38%	11% and 4.27%	-8.73% and -4.21%	4.55% and 6.92%
CC1CCC(NC(=O)C2(C)Cn3c(cc4occc43)C(=O)N2CCN2CCCCCC2)CC1 (configuration not stated)	2.67%	1.72%	-1.64%	2.43%	0.556%
O=C(CCc1nnc2n(Cc3ccc(F)cc3)c(=O)c3ccccc3n12)NC1CCN(Cc2ccccc2)CC1	0.823%	0.375%	-8.37%	3.49%	0.202%
CC(C)CNC(=O)c1ccc2c(=O)n(C)c3nn(Cc4ccccc4F)c(=O)n3c2c1	-7.79%	0%	1.67%	-3.69%	1.79%
CN1Cc2sccc2C(c2ccc(O)c(O)c2)C1 (configuration not stated)	-31.8%	14%	-0.715%	-3.45%	2.52%
CCc1nccn1Cc1nnc(C2CC(N)C2)n1CCOC (configuration not stated)	-5.42%	-9.51%	-4.17%	-14.7%	-10.7%
CN1C(=O)c2cc(C(=O)NCCCN3CCOCC3)nn2CC1(C)C(=O)NCc1ccccc1 (configuration not stated)	1.91%	4.08%	-2.9%	2.62%	-0.384%
O=C(NC1CCCCC1)[C@@H]1C[C@@H](O)CN1C1CCN(C(=O)c2ccccc2F)CC1	-7.98%	-8.87%	-4.62%	-11.8%	-8.87%
O=C(NCCNC(=O)c1ccccc1F)c1ccc(-c2cncnc2)cc1	-5.6%	-3.62%	-4.14%	-12.5%	-5.87%
CC1OC(OC2C(C)OC(OC3C(OC(=O)C45CCC(C)(C)CC4C4=CCC6C7(C)CCC(OC8OC(C(=O)O)C(O)C(O)C8OC8OC(CO)C(O)C(OC9OC(C)C(O)C(O)C9O)C8O)C(C)(CO)C7CCC6(C)C4(C)CC5)OC(CO)C(O)C3O)C(O)C2O)C(O)C(O)C1O (configuration not stated)	3.19%	-1.36%	8.13%	-12.2%	-6.01%
CC1(C(=O)NC2CCCCCC2)Cn2c(cc3sccc32)C(=O)N1c1ccc(Cl)cc1 (configuration not stated)	0.822%	0%	3.38%	4.99%	-2.35%
Cc1cc(Nc2nc(NC(C)c3ncc(F)cn3)ncc2Cl)n[nH]1 (configuration not stated)	-12.1%	1.95%	3.79%	-15.7%	3.39%
CCN1c2cc(C(=O)NCc3ccncc3)ccc2C(=O)N2CCCCC21 (configuration not stated)	-11.6%	-1.4%	-3.61%	-4.62%	0.53%

SMILES	activity change, negative = inhibition [1]	activity change, negative = inhibition [2]	activity change, negative = inhibition [3]	activity change, negative = inhibition [4]	activity change, negative = inhibition [5]
OCC(O)CN1CCN(c2ccccc2)CC1 (configuration not stated)	0.085%	0.89%	8.5%	-11.4%	2.73%
Cc1ccc(CNC(=O)C2(C)Cn3cnc(C(=O)NCc4cccc(C)c4)c3C(=O)N2C2CC2)cc1 (configuration not stated)	-4.51%	-2.79%	0.354%	-8.7%	-3.63%
Cc1cc(C(=O)NC[C@@H]2OC[C@@]3(C)[C@H]4CC[C@@H](O)[C@@H](CC(=O)N5CCCC5)[C@]4(C)CC[C@H]3O2)no1	-0.809%	-0.526%	-2.17%	-3.4%	-1.78%
CC1(C(=O)NC2CCCCC2)Cn2c(nc3ccccc32)C(=O)N1CCc1ccc(Cl)cc1 (configuration not stated)	6.83%	0%	8.22%	8.73%	3.13%
COc1ccc(OC)c(S(=O)(=O)N2CCCN(C)c3ccccc32)c1	-14.6%	-4.23%	-4.81%	-18.7%	-13.5%
COc1ccc(-n2[nH]c3c(cnc4ccccc43)c2=O)cc1	-6.51%	-3.43%	-30.3%	-18.4%	-0.857%
COCCN1CC2(CCCN(Cc3cc(C(C)(C)C)n[nH]3)C2)CCC1=O (configuration not stated)	-3.82%	-3.94%	-1.46%	-6.11%	-4.54%
O[C@@H](COc1cccc2ncccc12)CN1CCN(C2c3ccccc3[C@@H]3[C@H](c4ccccc42)C3(F)F)CC1 (some centres not stated)	6.98%	-12%	6.53%	-45.6%	-14%
C[C@@H]1CN(C(=O)c2ccc(-c3ccn[nH]3)cc2)CC[C@@]1(O)C1CCOCC1	-5.06%	-7.25%	-3.14%	-4%	10.5%
Cc1ccc(CCN2C(=O)c3cc4ccccc4n3CC2(C)C(=O)NC2CCCC2)cc1 (configuration not stated)	4.83%	7.62%	7.34%	6.22%	3.48%
O=C(NCc1cccnc1)c1ccc2c(=O)nc3c(-c4ccc(Cl)cc4)n[nH]n3c2c1	-11.2%	-0.431%	1.94%	1.03%	-2.73%
C[C@H](NC(=O)/C(C#N)=C/c1ccc(O)c(O)c1)c1ccccc1	-20.6%	2.86%	-1.31%	-43.3%	9.9%
CC(C)CCn1c(=O)c2ccc(C(=O)NC3CCCCC3)cc2n2c(=O)n(CC(N)=O)nc12	-2.99%	-1.21%	-1.12%	-3.39%	-4.04%
Cc1ncc2n1C(=O)N(C1CCN(C(=O)NC3CCCC3)CC1)C2	-6.47%	-9.6%	-3.09%	-20.7%	-11.3%
CNC(=O)c1[nH]nc2c1C(c1cc(OC)ccc1-n1cccn1)CC(=O)N2 (configuration not stated)	-4.28%	1.06%	1.27%	-0.665%	-3.71%
O=C(N[C@@H]1CN(C(=O)Nc2ccc(F)cc2)CCC[C@H]1O)c1ccc(OCCN2CCCC2)cc1	-3.96%	-5.86%	-5.89%	-7.74%	-6.05%
COc1cc2nc(N3CCN(C(=O)c4ccco4)C4CCCCC43)nc(N)c2cc1OC (configuration not stated)	-68%	-22.1%	-40.1%	-49.6%	-7.66%
CCCn1c(=O)c2ccc(C(=O)NC3CCCCC3)cc2n2c(=O)n(CC(=O)NC(C)C)nc12	10.9%	3%	13.3%	10.1%	7.26%
Cc1ccc(N2C(=O)c3ccc(-c4ccco4)n3CC2(C)C(=O)NCc2ccccc2)cc1 (configuration not stated)	-11.2%	4.47%	2.07%	-1.87%	-3.15%
Cn1c(=O)c2ccc(C(=O)NC3CCCCC3)cc2n2c(SCc3cccc(F)c3)nnc12	-1.34%	4.6%	1.04%	-0.096%	0.703%

SMILES	activity change, negative = inhibition [1]	activity change, negative = inhibition [2]	activity change, negative = inhibition [3]	activity change, negative = inhibition [4]	activity change, negative = inhibition [5]
O=C(O)/C=C/c1ccc(-c2ccc(O)c(C34CC5CC(CC(C5)C3)C4)c2)cc1	-58.6%	2.08%	-2.9%	-88.8%	-49.8%
CN1CCCC2(C1)CN(C)c1ccc(C(=O)NCC3CCCCC3)cc12 (configuration not stated)	-4.31%	-4%	-82.6%	-13.9%	-0.546%
CCN(CC)c1ccc(NS(=O)(=O)c2ccc3[nH]c4c(c3c2)CCCC4)c(C)c1	4.49%	-6.54%	-1.87%	-5.47%	-0.969%
CC(=O)Nc1c2n(c3ccccc13)CC(C)(C(=O)NC1CCCC1)N(Cc1ccco1)C2=O (configuration not stated)	-4.97%	-0.374%	2.25%	3.23%	1.85%
CC(C)(C)c1cc(/C=C(\C#N)C(N)=S)cc(C(C)(C)C)c1O	-58.9%	-14.3%	-37.9%	-20.5%	-24.3%
CC(=O)N1CC[C@]2(O)CCN(C(=O)CCCc3ccc(F)cc3)C[C@@H]2C1	-2.56%	-3.55%	-0.965%	-6.25%	-3.36%
CC(=O)O[C@@H]1[C@@H](O)[C@H](C)O[C@@H](O[C@H]2[C@@H]3C=CO[C@@H](O[C@@H]4O[C@H](CO)[C@@H](O)[C@H](O)[C@H]4OC(C)=O)[C@@H]3[C@@]3(CO)O[C@@H]23)[C@@H]1OC(=O)/C=C/c1ccc(O)cc1	0.851%	4.44%	2.39%	-8.94%	3.45%
Cc1cn2c(N)c(Cl)cc(C(=O)NCC3CCN(CC(C)C)CC3)c2n1	-14.7%	-5.9%	-16.5%	-18.1%	-10.4%
Cn1c(=O)n(C)c2cc(S(=O)(=O)N3CCN(C4CCCCC4)CC3)ccc21	1.07%	0%	-61.4%	12.7%	2.48%
COCCNc1nc(C)nc2c1CCN(C(=O)c1ccoc1)CC2	-4.6%	-4.46%	-1.43%	-10.1%	-4.39%
CC1(C(=O)NC2CCCC2)Cn2c(ccc2-c2ccco2)C(=O)N1CCc1ccc(Cl)cc1 (configuration not stated)	-6.35%	4.72%	2.6%	-4.58%	-2.8%
CCCc1cnc(C)nc1N1CC[C@@H](NC(=O)c2cnccn2)[C@H](O)C1	-11.8%	-6.01%	-0.397%	-9.05%	-1.76%
CCOC(=O)[C@H](CCc1ccccc1)N[C@@H](C)C(=O)N1C2CCCCC2C[C@H]1C(=O)O (some centres not stated)	2.42%	–	9.14%	–	–
CN(CCCOc1ccc(Cc2ccccc2)cc1)CCC(=O)O	5.42% and -2.71%	14.3% and 5.29%	9.8% and 10.7%	0.842% and -12.8%	7.95% and 5.25%
CC1CCCCC1NC(=O)C1(C)Cn2c(nc3ccccc32)C(=O)N1CCCc1ccccc1 (configuration not stated)	0.128%	0%	3%	4.82%	0.858%
CCC1c2ccc(C)n2CCN1C(=O)Nc1cccc2c1CCCC2 (configuration not stated)	0.336%	0%	-8.01%	-3.29%	-0.484%
Cn1c(=O)n(C)c2cc(S(=O)(=O)N3CCN(c4ccccc4)CC3)ccc21	0.804%	5.7%	7.41%	12.7%	2.51%
Cn1c(=O)c2ccc(C(=O)NC3CCCCC3)cc2n2c(=O)n(Cc3c(F)cccc3Cl)nc12	-0.575%	-1.91%	4.18%	-1.26%	-2.45%
